In the supplement of paper PMC9446081:
Hit rate of the full screen: of about 39,000 compounds, about 220 (0.56%) showed activity. The list shows a part of the results.

test system: Escherichia coli K-12 BW25113; assay: relative growth (OD600 normalised to plate interquartile mean) (fraction); higher = less growth inhibition, active = 0.2 or less; conditions: 50 µM; LB; incubation time: overnight (16-24 h)
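Note: static incubation at 37 °C against the wild-type strain, values averaged over two biological replicates.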

| Compound | relative growth |
| --- | --- |
| C[C@@H]1CN([C@H](C)CO)C(=O)c2cc(NC(=O)CCCN(C)C)ccc2O[C@H]1CN(C)C(=O)Nc1ccccc1 | inactive: 0.977 |
| CC(C)NC(=O)N(C)C[C@@H]1Oc2ccc(NC(=O)Cn3cnnn3)cc2C(=O)N([C@@H](C)CO)C[C@H]1C | inactive: 0.98 |
| Cn1c(=O)c2c(nc(N3CCCCC3)n2CCN)n(C)c1=O | inactive: 0.937 |
| C[C@H]1CCCCO[C@@H](CN(C)C(=O)Nc2ccccc2)[C@@H](C)CN([C@@H](C)CO)C(=O)c2cc(NS(=O)(=O)c3cccs3)ccc2O1 | inactive: 0.991 |
| COc1ccc(-n2nc(C(N)=O)c3c2C(=O)N(c2ccc(N4CCCCC4=O)cc2)CC3)cc1 | inactive: 1.05 |
| COCC#Cc1ccc2c(c1)O[C@H](CN(C)S(=O)(=O)c1ccc(OC)cc1)[C@@H](C)CN([C@H](C)CO)S2(=O)=O | inactive: 1.01 |
| O=C(C[C@@H]1C[C@H]2c3cc(NC(=O)c4cccnc4)ccc3O[C@H]2[C@@H](CO)O1)NCc1cc(F)ccc1F | inactive: 0.979 |
| COc1ccc(S(=O)(=O)Nc2ccc3c(c2)CC(=O)N([C@@H](C)CO)C[C@H](C)[C@@H](CN(C)S(=O)(=O)c2ccccc2)O3)cc1 | inactive: 0.996 |
| COc1nn(C)cc1C(=O)NC1=NCCS1 | inactive: 1 |
| C[C@@H]1CN([C@@H](C)CO)C(=O)c2cc(NC(=O)c3ccncc3)ccc2O[C@@H](C)CCCCO[C@H]1CN(C)C(=O)Nc1ccccc1 | inactive: 0.979 |
| COc1ccc([Si](C)(C)[C@H]2[C@H](CC(=O)N3Cc4ccccc4C[C@H]3CO)O[C@@]3(C(=O)N(C)c4c(Br)cc(C)cc43)[C@@H]2C)cc1 | inactive: 1.01 |
| Cc1ccc(S(=O)(=O)N(C)C[C@@H]2Oc3ccc(NC(=O)Cn4cnnn4)cc3C(=O)N([C@@H](C)CO)C[C@@H]2C)cc1 | inactive: 0.964 |
| CO[C@@H]1CN(C)C(=O)c2ccc(NS(=O)(=O)CC(F)(F)F)cc2OC[C@@H](C)N(Cc2nccs2)C[C@H]1C | inactive: 1.03 |
| C[C@@H]1CN([C@@H](C)CO)C(=O)Cc2cc(NC(=O)Nc3ccc(F)cc3)ccc2O[C@H]1CN(C)S(=O)(=O)c1cn(C)cn1 | inactive: 0.979 |
| COc1ccc(CN(C)C[C@H]2OCCCC[C@H](C)Oc3ccc(NC(=O)c4ccncc4)cc3C(=O)N([C@@H](C)CO)C[C@@H]2C)cc1 | inactive: 0.968 |
| C[C@@H]1CN([C@H](C)CO)S(=O)(=O)c2ccc(C#CCN(C)C)cc2O[C@@H]1CN(C)Cc1ccc2c(c1)OCO2 | inactive: 0.994 |
| COc1cccc(S(=O)(=O)N2C[C@@H](O)COC[C@@H]3O[C@H](CC(=O)N4CCN(c5ccccc5)CC4)CC[C@H]32)c1 | inactive: 1.01 |
| C[C@H](CO)N1C[C@H](C)[C@H](CN(C)S(=O)(=O)c2cccs2)Oc2ccc(NC(=O)Cc3ccccc3)cc2C1=O | inactive: 0.986 |
| CC(=O)CCc1ccc(OC(C)=O)cc1 | inactive: 0.898 |

| Compound | relative growth |
| --- | --- |
| C=CCC[C@@H](Cc1ccc(F)cc1)C(=O)OC[C@@H](NC(=O)[C@@H](CC=C)CC(=O)N(CCO)Cc1ccccc1)C(C)(C)C | inactive: 1.05 |
| CN(C)CC(=O)N[C@H]1CC[C@@H](CC(=O)NCCN2CCCCC2)O[C@@H]1CO | inactive: 0.995 |
| O=C1C=CC(O)(/C=C/C(=O)O[C@@H]2[C@@H](O)[C@H](Oc3ccc(O)cc3)O[C@H](CO)[C@H]2O)C=C1 | inactive: 1.01 |
| C[C@H]1CCCCO[C@@H](CN(C)CC2CCCCC2)[C@@H](C)CN([C@@H](C)CO)C(=O)c2cc(NS(=O)(=O)c3ccc(F)cc3)ccc2O1 | inactive: 0.987 |
| C[C@@H]1CCCCO[C@H](CN(C)C(=O)Nc2ccc(C(F)(F)F)cc2)[C@H](C)CN([C@@H](C)CO)C(=O)c2cc(NS(=O)(=O)c3cn(C)cn3)ccc2O1 | inactive: 0.864 |
| C[C@H](CO)N1C[C@H](C)[C@H](CN(C)S(=O)(=O)c2cn(C)cn2)Oc2c(NS(=O)(=O)c3cccs3)cccc2C1=O | inactive: 1 |
| CC(=O)Oc1cccc(C(=O)O)c1OC(C)=O | inactive: 1.08 |
| COc1cc2c(cc1OC)CN(C[C@H]1C[C@H](c3ccccc3)O[C@H](c3ccc(NC(=O)CCCCCCC(=O)NO)cc3)O1)CC2 | inactive: 0.996 |
| COc1ncc(-c2ccc3c(Nc4cc(Oc5cc(F)cc(F)c5)cc(C(=O)O)c4)c(S(=O)(=O)NC4CC4)cnc3c2)c(OC)n1 | inactive: 1.02 |
| C[C@@H]1CN([C@H](C)CO)C(=O)c2cccc(NC(=O)C3CCOCC3)c2O[C@H]1CN(C)C(=O)Nc1ccc2c(c1)OCO2 | inactive: 1.04 |
| C[C@@H]1CN([C@H](C)CO)S(=O)(=O)c2ccc(C#CC3CCCC3)cc2O[C@@H]1CN(C)C(=O)Cc1ccncc1 | inactive: 0.974 |
| COc1ccc(S(=O)(=O)N(C)C[C@@H]2OCCCC[C@@H](C)Oc3ccc(NC(=O)Nc4ccc(C(F)(F)F)cc4)cc3C(=O)N([C@@H](C)CO)C[C@@H]2C)cc1 | inactive: 1.01 |
| COc1ccc(NC(=O)Nc2ccc3c(c2)C(=O)N([C@@H](C)CO)C[C@@H](C)[C@@H](CN(C)S(C)(=O)=O)O3)cc1 | inactive: 1.02 |
| CC(C)NC(=O)Nc1ccc2c(c1)C(=O)N([C@@H](C)CO)C[C@@H](C)[C@H](CN(C)C(=O)Nc1ccc(F)cc1)OCCCC[C@@H](C)O2 | inactive: 0.982 |
| COc1ccc(NC(=O)Nc2ccc3c(c2)C(=O)N([C@@H](C)CO)C[C@H](C)[C@@H](CN(C)C(=O)Nc2ccc(C(F)(F)F)cc2)OCCCC[C@H](C)O3)cc1 | inactive: 1.03 |
| COc1ccc(NC(=O)N(C)C[C@@H]2Oc3ncc(C#C[C@@H](C)O)cc3C(=O)N([C@H](C)CO)C[C@@H]2C)cc1 | inactive: 1 |
| C[C@@H]1CN([C@H](C)CO)C(=O)c2cc(NC(=O)NC3CCCCC3)ccc2O[C@@H](C)CCCCO[C@H]1CN(C)S(=O)(=O)c1ccc(Cl)cc1 | inactive: 0.975 |
| C[C@@H]1CN([C@@H](C)CO)C(=O)Cc2cc(NC(=O)Cc3ccccc3)ccc2O[C@H]1CN(C)C(=O)Nc1cccc2ccccc12 | inactive: 0.988 |
